Source: PMC4336329 (PLoS ONE, 2015)
Out of some 310,000 compounds screened, about 14,000 (4.5%) showed an effect of 50% or more. The effect is printed as a negative number. This is one part of the list.

Target: human ether-à-go-go-related gene (hERG) potassium channel (human, UniProt Q12809)
Assay: primary screen, population patch clamp on CHO cells stably expressing hERG
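Also: peak tail current of the secondary pulse compared with the same well before compound.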

Sequence of human ether-à-go-go-related gene (hERG) potassium channel (Q12809 whole entry, looked up): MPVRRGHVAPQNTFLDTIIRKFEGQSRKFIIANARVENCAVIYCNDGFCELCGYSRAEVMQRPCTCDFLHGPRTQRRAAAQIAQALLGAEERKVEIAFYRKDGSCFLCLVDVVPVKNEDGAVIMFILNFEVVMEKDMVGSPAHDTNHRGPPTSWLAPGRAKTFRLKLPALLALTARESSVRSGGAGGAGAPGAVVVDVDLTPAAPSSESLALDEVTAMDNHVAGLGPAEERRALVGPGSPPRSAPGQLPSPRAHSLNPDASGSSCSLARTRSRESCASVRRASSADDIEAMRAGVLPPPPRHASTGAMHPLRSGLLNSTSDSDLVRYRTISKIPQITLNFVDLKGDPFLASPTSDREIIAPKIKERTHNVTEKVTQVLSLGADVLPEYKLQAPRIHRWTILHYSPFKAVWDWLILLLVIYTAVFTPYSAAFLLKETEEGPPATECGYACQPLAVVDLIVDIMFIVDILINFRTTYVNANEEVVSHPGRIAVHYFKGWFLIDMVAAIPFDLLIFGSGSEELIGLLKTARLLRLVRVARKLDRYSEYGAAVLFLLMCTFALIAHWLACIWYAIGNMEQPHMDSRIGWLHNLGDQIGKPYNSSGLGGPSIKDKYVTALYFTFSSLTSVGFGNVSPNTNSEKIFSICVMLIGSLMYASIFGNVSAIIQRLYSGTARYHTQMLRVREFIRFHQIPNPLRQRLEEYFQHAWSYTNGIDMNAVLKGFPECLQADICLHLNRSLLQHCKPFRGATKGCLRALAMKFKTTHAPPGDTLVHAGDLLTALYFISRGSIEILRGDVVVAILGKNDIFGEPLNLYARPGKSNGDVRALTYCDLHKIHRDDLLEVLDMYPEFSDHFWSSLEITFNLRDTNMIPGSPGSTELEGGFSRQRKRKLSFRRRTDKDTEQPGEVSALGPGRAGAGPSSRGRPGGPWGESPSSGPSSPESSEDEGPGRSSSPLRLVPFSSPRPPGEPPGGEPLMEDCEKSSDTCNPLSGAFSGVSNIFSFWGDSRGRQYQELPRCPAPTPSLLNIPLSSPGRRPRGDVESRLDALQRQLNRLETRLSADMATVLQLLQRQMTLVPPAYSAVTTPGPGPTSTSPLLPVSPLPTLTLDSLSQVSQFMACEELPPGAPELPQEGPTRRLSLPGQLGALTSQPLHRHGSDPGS

Compound | hERG current change (%, negative = inhibition) at 10uM
Cc1ccc(C2CC(C(F)(F)F)n3ncc(C(N)=O)c3N2)cc1 (stereo not drawn) | -0.858%
Cc1ccc(OCC(=O)Nc2ccc(CN3CCOCC3)cc2)cc1 | -9.4%
CCCn1nc(C(=O)Nc2ccc(N3CCOCC3)cc2)c2ccccc2c1=O | -17.6%
Cc1ccc(COc2ccc(/C=N/NC(=O)c3nnn(-c4nonc4N)c3COc3ccc(F)cc3)cc2)cc1 | 6.65%
CCn1cc(CN(C)S(=O)(=O)c2ccc3ccccc3c2)c(C)n1 | -1.17%
CC1CC(C)CN(c2ccc([N+](=O)[O-])nc2)C1 (stereo not drawn) | 19%
CCc1cc[n+](/C(C(=S)Nc2cccc(C)c2)=C(/[O-])c2ccc(C)c([N+](=O)[O-])c2)cc1 | -24.5%
Cc1ccc(NC(=O)COc2cccc(/C=C3\SC(=S)N(CCC(=O)O)C3=O)c2)cc1Cl | 3.99%
COc1cnc(-c2ccccn2)nc1Oc1ccccc1 | -72.8%
S=C(NCc1ccccc1)N1CCn2cccc2C1c1ccncc1 (stereo not drawn) | -8.44%
Cc1ccccc1OCC1CN(CN2CCOCC2)C(=O)O1 (stereo not drawn) | 1%
CCS(=O)(=O)c1nn2c(N)c(/C=C3/C=CC(=O)C(OC)=C3)c(=O)nc2s1 | 19.9%
Cc1cc(C)c2c(SC(C)C)nc(N)nc2n1 | -4.12%
CCOC(=O)c1cnc2sc3c(n2c1=O)CCCC3 | -9.95%
COc1ccc(OCC(O)CON2C(=O)c3ccccc3C2=O)cc1 (stereo not drawn) | -20.2%
CCCCCSc1cc(O)c(C(CNC)C(C)C)cc1OC.O=C(O)/C=C\C(=O)O (stereo not drawn) | -12.9%
Cn1cnnc1SCC(=O)N/N=C/c1ccc(OCC(N)=O)cc1 | 14%
CCOc1c(Cl)cc(CNCC(C)C)cc1Cl.Cl | -4.82%
O=[N+]([O-])c1cccc(-c2ccn[nH]2)c1 | 10.5%
CCOC(=O)N1CCN(C(=O)C2CCCN(Cc3nc(-c4ccc(Cl)cc4)oc3C)C2)CC1 (stereo not drawn) | -70.9%
COC(=O)CC1C(=O)NC2CCCCC2N1C(=O)CCl (stereo not drawn) | 14.9%
Cc1cccc(NC(=O)CN2C(=O)N/C(=C/c3ccc(C)s3)C2=O)c1 | 8.71%
CC(OC(=O)C1CCN(S(=O)(=O)c2ccc(F)cc2)CC1)C(=O)NC1CCCCC1C (stereo not drawn) | 7.77%
CC(C(=O)Nc1ccc(S(N)(=O)=O)cc1)N1CCc2ccccc21 (stereo not drawn) | 10.3%
COc1ccc(Cn2c(=S)[nH]c3cc(C(=O)N4CCCCC4)ccc3c2=O)cc1 | 13.3%
c1ccc(-c2nc3c(ccc4ccccc43)[nH]2)nc1 | 0.315%
O=C(NN1CCOCC1)C12CC3CC(CC(C3)C1)C2 | 7.45%

Compound | hERG current change (%, negative = inhibition) at 10uM
COc1ccccc1C(=O)Oc1cc(N)n(S(=O)(=O)c2ccc(C)cc2)n1 | -7.77%
CCN1CCN(CCOc2cccc(Oc3ccccc3)c2)CC1.O=C(O)C(=O)O | -61.1%
Cc1ccc(C(=O)CSc2nc(-c3ccccc3)ccc2C#N)cc1 | 2.56%
O=C(c1cccc(S(=O)(=O)N2CCCCC2)c1)N1CCN(c2ccccc2)CC1 | -73.1%
O=C(Nc1ccccc1C(=O)NC(Cc1ccccc1)C(=O)NC1CCCCC1)c1ccccc1 (stereo not drawn) | 0.583%
COc1ccc(NS(=O)(=O)c2cccc(C(=O)NNC(=O)CNC(=O)c3ccccc3)c2)cc1 | 13.4%
Cc1ccc(NC(=O)C2(c3ccccc3)CC2(Cl)Cl)cc1C (stereo not drawn) | 13%
N#CC1=C(S)N=C(N)C(c2nc(-c3ccccc3)cs2)C12CCCC2 (stereo not drawn) | 6.39%
CCOC(=O)C1CCCN(S(=O)(=O)c2c(C)noc2C)C1 (stereo not drawn) | 0.934%
COc1ccc(-c2nc(CCl)cs2)cc1OC.Cl | -12.5%
COc1ccc(/C=N/NC(=O)NC23CC4CC(CC(C4)C2)C3)c(OC)c1 | 20.1%
O=[N+]([O-])c1ccc(CS(=O)(=O)N2CCN(c3ccccc3)CC2)cc1 | 9.29%
COc1ccc(-c2noc(CCC(=O)NCCc3ccccc3)n2)cc1OC | 13.9%
Cl.O=C(CNCC1CCCCC1)Nc1ccc(OC(F)(F)F)cc1 | -62.4%
Cc1ccc(-n2nc3c(=O)n(CCCC(=O)NCC(C)c4ccccc4)nc(C)c3c2C)cc1 (stereo not drawn) | -38.1%
COc1ccccc1CC1(C)NC(=O)N(CC(=O)N2CC(C)OC(C)C2)C1=O (stereo not drawn) | 9.11%
CCOc1ccc(OCc2ccc(C(=O)NC(C)(C)C)o2)cc1 | 7.35%
CCC(C)COC(c1ccccc1)(c1ccccc1)C(Oc1nc(C)cc(C)n1)C(=O)O (stereo not drawn) | 14.6%
CN(C)CCn1nnnc1SCC1=C(C(=O)O)N2C(=O)[C@@H](NC(=O)Cc3csc(N)n3)[C@H]2SC1.Cl | 19.8%
CC(C)=CC(=O)OCC(=O)Nc1ncc(Cl)c(C)c1Cl | -0.811%
CC(=O)O[C@@]1(C)C[C@@H](O)[C@]2(O)C=CO[C@@H](O[C@@H]3O[C@H](CO)[C@@H](O)[C@H](O)[C@H]3O)[C@@H]21 | 16.5%
NC(=O)C1CCN(Cc2cccc(OCc3ccccc3)c2)CC1.O=C(O)C(=O)O | -12%
C=CCn1c(N)c(C(=O)Nc2cccc(C)c2)c2nc3ccccc3nc21 | 22.6%
CC(C)CCNC(=O)CCS(=O)(=O)c1cccc2nonc12 | 12.8%
Br.COc1ncnc2c1N=C1CC(C)(C)CC(N)=C1S2 | -10.4%
Cc1ccc(NC(=O)c2ccc(NCCCN3CCC(C)CC3)c([N+](=O)[O-])c2)cc1F.Cl | -8.31%
CC(=O)c1ccc(-n2c(CCC(=O)O)ccc2-c2ccc(Cl)cc2)cc1 | 8.55%
